# Test results as given in the supplement of paper PMC8728848.
# Some of the results follow.
# B1: LecB PA7 (Pseudomonas aeruginosa) (protein)
# chain: MATQGVFTLPANTRFGVTAFANSSATQTVKVLVNNETAATFTGQSTNNAVIGSQVLNSGGGGKVQIQVSVNGRSSDLVSAQVILANELNVALVGSEDSTDNDYNDAVVVINWPLG
# Legend:
# Assay in all cases: glycan array binding signal (z-score within array); higher = stronger binding
# Conditions in all cases: glycan notation: IUPAC condensed, linker removed
# [1] = target: Neu5Ac(a2-6)Gal(b1-4)GlcNAc(b1-2)Man(a1-3)[Neu5Ac(a2-3)Gal(b1-4)GlcNAc(b1-2)Man(a1-6)]Man(b1-4)GlcNAc(b1-4)GlcNAc
# Outline: (§1)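 The binding signal is a Z-score computed within each array. Data were drawn from 3228 arrays in the Consortium for Functional Glycomics database, restricted to those with a known protein sequence. Scores were averaged over arrays of the same protein sequence at different concentrations or buffers, and over linkers, and negative values can be taken as non-binding.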
# [2] = target: Neu5Ac(a2-6)Gal(b1-4)GlcNAc(b1-2)Man(a1-3)[Neu5Ac(a2-6)Gal(b1-4)GlcNAc(b1-2)Man(a1-6)]Man(b1-4)GlcNAc(b1-4)GlcNAc
# Outline: as §1
# [3] = target: Neu5Ac(a2-6)Gal(b1-4)GlcNAc(b1-2)Man(a1-3)[Neu5Ac(a2-6)Gal(b1-4)GlcNAc(b1-2)Man(a1-6)]Man(b1-4)GlcNAc(b1-4)[Fuc(a1-6)]GlcNAc
# Outline: as §1
# [4] = target: Neu5Ac(a2-6)Gal(b1-4)GlcNAc(b1-2)Man(a1-6)Man(b1-4)GlcNAc(b1-4)GlcNAc
# Outline: as §1
# [5] = target: Neu5Ac(a2-6)Gal(b1-4)GlcNAc(b1-2)Man(a1-6)[Gal(b1-4)GlcNAc(b1-2)Man(a1-3)]Man(b1-4)GlcNAc(b1-4)GlcNAc
# Outline: as §1
# [6] = target: Neu5Ac(a2-6)Gal(b1-4)GlcNAc(b1-2)Man(a1-6)[GlcNAc(b1-2)Man(a1-3)]Man(b1-4)GlcNAc(b1-4)GlcNAc
# Outline: as §1
# [7] = target: Neu5Ac(a2-6)Gal(b1-4)GlcNAc(b1-2)Man(a1-6)[Man(a1-3)]Man(b1-4)GlcNAc(b1-4)GlcNAc
# Outline: as §1
# [8] = target: Neu5Ac(a2-6)Gal(b1-4)GlcNAc(b1-2)[Neu5Ac(a2-6)Gal(b1-4)GlcNAc(b1-4)]Man(a1-3)[GlcNAc(b1-4)][Neu5Ac(a2-6)Gal(b1-4)GlcNAc(b1-2)[Neu5Ac(a2-6)Gal(b1-4)GlcNAc(b1-6)]Man(a1-6)]Man(b1-4)GlcNAc(b1-4)GlcNAc
# Outline: as §1
# [9] = target: Neu5Ac(a2-6)Gal(b1-4)GlcNAc(b1-2)[Neu5Ac(a2-6)Gal(b1-4)GlcNAc(b1-4)]Man(a1-3)[GlcNAc(b1-4)][Neu5Ac(a2-6)Gal(b1-4)GlcNAc(b1-4)Man(a1-6)]Man(b1-4)GlcNAc(b1-4)GlcNAc
# Outline: as §1
# [10] = target: Neu5Ac(a2-6)Gal(b1-4)GlcNAc(b1-2)[Neu5Ac(a2-6)Gal(b1-4)GlcNAc(b1-6)]Man(a1-6)[Neu5Ac(a2-6)Gal(b1-4)GlcNAc(b1-2)Man(a1-3)][GlcNAc(b1-4)]Man(b1-4)GlcNAc(b1-4)GlcNAc
# Outline: as §1
# [11] = target: Neu5Ac(a2-6)Gal(b1-4)GlcNAc(b1-3)Gal(b1-3)GlcNAc
# Outline: as §1
# [12] = target: Neu5Ac(a2-6)Gal(b1-4)GlcNAc(b1-3)Gal(b1-4)GlcNAc
# Outline: as §1
# [13] = target: Neu5Ac(a2-6)Gal(b1-4)GlcNAc(b1-3)Gal(b1-4)GlcNAc(b1-2)Man(a1-3)[Neu5Ac(a2-6)Gal(b1-4)GlcNAc(b1-3)Gal(b1-4)GlcNAc(b1-2)Man(a1-6)]GalNAc
# Outline: as §1
# [14] = target: Neu5Ac(a2-6)Gal(b1-4)GlcNAc(b1-3)Gal(b1-4)GlcNAc(b1-3)Gal(b1-4)GlcNAc
# Outline: as §1
# [15] = target: Neu5Ac(a2-6)Gal(b1-4)GlcNAc(b1-3)Gal(b1-4)GlcNAc(b1-3)Gal(b1-4)GlcNAc(b1-2)Man(a1-3)[Neu5Ac(a2-6)Gal(b1-4)GlcNAc(b1-3)Gal(b1-4)GlcNAc(b1-3)Gal(b1-4)GlcNAc(b1-2)Man(a1-6)]GalNAc
# Outline: as §1
# [16] = target: Neu5Ac(a2-6)Gal(b1-4)GlcNAc(b1-3)Gal(b1-4)GlcNAc(b1-3)GalNAc
# Outline: as §1
# [17] = target: Neu5Ac(a2-6)Gal(b1-4)GlcNAc(b1-3)Gal(b1-4)GlcNAc(b1-3)[Neu5Ac(a2-6)Gal(b1-4)GlcNAc(b1-3)Gal(b1-4)GlcNAc(b1-6)]GalNAc
# Outline: as §1
# [18] = target: Neu5Ac(a2-6)Gal(b1-4)GlcNAc(b1-3)Gal(b1-4)GlcNAc(b1-6)[Gal(b1-3)]GalNAc
# Outline: as §1
# [19] = target: Neu5Ac(a2-6)Gal(b1-4)GlcNAc(b1-3)Gal(b1-4)[Fuc(a1-3)]GlcNAc(b1-3)Gal(b1-4)[Fuc(a1-3)]GlcNAc
# Outline: as §1
# [20] = target: Neu5Ac(a2-6)Gal(b1-4)GlcNAc(b1-3)GalNAc
# Outline: as §1
# [21] = target: Neu5Ac(a2-6)Gal(b1-4)GlcNAc(b1-3)[Neu5Ac(a2-6)Gal(b1-4)GlcNAc(b1-6)]GalNAc
# Outline: as §1
# [22] = target: Neu5Ac(a2-6)Gal(b1-4)GlcNAc(b1-6)GalNAc
# Outline: as §1
# [23] = target: Neu5Ac(a2-6)Gal(b1-4)GlcNAc(b1-6)[Gal(b1-3)GlcNAc(b1-3)]Gal(b1-4)Glc
# Outline: as §1
# [24] = target: Neu5Ac(a2-6)Gal(b1-4)GlcNAc(b1-6)[Gal(b1-3)]GalNAc
# Outline: as §1
# [25] = target: Neu5Ac(a2-6)Gal(b1-4)GlcNAc6S
# Outline: as §1
# Neu5Ac(a2-6)GalNAc = target: Neu5Ac(a2-6)GalNAc
# Outline: as §1
# [26] = target: Neu5Ac(a2-6)GalNAc(b1-4)GlcNAc
# Outline: as §1
# [27] = target: Neu5Ac(a2-6)GalNAc(b1-4)GlcNAc6S
# Outline: as §1
# [28] = target: Neu5Ac(a2-6)GlcNAc(b1-4)GlcNAc
# Outline: as §1
# [29] = target: Neu5Ac(a2-6)GlcNAc(b1-4)GlcNAc(b1-4)GlcNAc
# Outline: as §1
binder,measurement,setting,value
B1,glycan array binding signal (z-score),[1],-0.502
same,glycan array binding signal (z-score),[2],-0.47
same,glycan array binding signal (z-score),[3],0.226
same,glycan array binding signal (z-score),[4],-0.497
same,glycan array binding signal (z-score),[5],-0.515
same,glycan array binding signal (z-score),[6],-0.51
same,glycan array binding signal (z-score),[7],1.12
same,glycan array binding signal (z-score),[8],-0.507
same,glycan array binding signal (z-score),[9],-0.508
same,glycan array binding signal (z-score),[10],-0.484
same,glycan array binding signal (z-score),[11],-0.507
same,glycan array binding signal (z-score),[12],-0.504
same,glycan array binding signal (z-score),[13],-0.435
same,glycan array binding signal (z-score),[14],-0.512
same,glycan array binding signal (z-score),[15],-0.466
same,glycan array binding signal (z-score),[16],-0.501
same,glycan array binding signal (z-score),[17],-0.497
same,glycan array binding signal (z-score),[18],-0.51
same,glycan array binding signal (z-score),[19],2.19
same,glycan array binding signal (z-score),[20],-0.471
same,glycan array binding signal (z-score),[21],-0.506
same,glycan array binding signal (z-score),[22],-0.476
same,glycan array binding signal (z-score),[23],-0.396
same,glycan array binding signal (z-score),[24],-0.504
same,glycan array binding signal (z-score),[25],-0.503
same,glycan array binding signal (z-score),Neu5Ac(a2-6)GalNAc,-0.507
same,glycan array binding signal (z-score),[26],-0.511
same,glycan array binding signal (z-score),[27],-0.408
same,glycan array binding signal (z-score),[28],-0.49
same,glycan array binding signal (z-score),[29],-0.371
